# Source: the supplement of paper PMC12645437, “Orthogonal IMiD-Degron Pairs Induce Selective Protein Degradation in Cells” (ACS Chemical Biology, 2025)
# This is one part of the list.
# B1: Q9UKT9 (peptide)
# chain: FSCPQCGAQFTQKGNLLRHIKL
# B2: Q9UKT9 (peptide)
# chain: FGCPQCGAVFTQKGNLLRHIKL
# B3: Q9UKT9 (peptide)
# chain: FECSVCGHTFTQKGNLLRHIKL
# B4: Q9UKT9 (peptide)
# chain: FACEVCGAWFTQKGNLLRHIKL
# B5: Q9UKT9 (peptide)
# chain: FGCEICGAPFTQKGNLLRHIKL
# B6: Q9UKT9 (peptide)
# chain: FTCDQCGADFTQKGNLLRHIKL
# B7: Q9UKT9 (peptide)
# chain: LHCPICGFLCTQKGNLLRHIKL
# B8: Q9UKT9 (peptide)
# chain: FDCEVCGAAFTQKGNLLRHIKL
# B9: Q9UKT9 (peptide)
# chain: FFCEICGRCFTQKGNLLRHIKL
# B10: Q9UKT9 (peptide)
# chain: FCCNICGAEFTQKGNLLRHIKL
# B11: Q9UKT9 (peptide)
# chain: FTCPQCGAAFTQKGNLLRHIKL
# B12: Q9UKT9 (peptide)
# chain: FNCDICGAVFTQKGNLLRHIKL
# B13: Q9UKT9 (peptide)
# chain: FMCPICGHSFTQKGNLLRHIKL
# B14: Q9UKT9 (peptide)
# chain: FSCEQCGALFTQKGNLLRHIKL
# B15: Q9UKT9 (peptide)
# chain: FQCEICGHHFTQKGNLLRHIKL
# B16: Q9UKT9 (peptide)
# chain: FHCNVCGAWFTQKGNLLRHIKL
# B17: Q9UKT9 (peptide)
# chain: FMCPICGRDFTQKGNLLRHIKL
# B18: Q9UKT9 (peptide)
# chain: FVCEICGHEFTQKGNLLRHIKL
# B19: Q9UKT9 (peptide)
# chain: LRCNQCGFTCTQKGNLLRHIKL
# B20: Q9UKT9 (peptide)
# chain: FTCNQCGREFTQKGNLLRHIKL
# B21: Q9UKT9 (peptide)
# chain: FKCPICGRNFTQKGNLLRHIKL
# B22: Q9UKT9 (peptide)
# chain: FHCPQCGASFTQKGNLLRHIKL
# B23: Q9UKT9 (peptide)
# chain: FACNQCGALFTQKGNLLRHIKL
# B24: Q9UKT9 (peptide)
# chain: LMCNQCGFRCTQKGNLLRHIKL
# B25: Q9UKT9 (peptide)
# chain: FECNQCGACFTQKGNLLRHIKL
# B26: Q9UKT9 (peptide)
# chain: FGCPVCGAAFTQKGNLLRHIKL
# B27: Q9UKT9 (peptide)
# chain: FCCNQCGRMFTQKGNLLRHIKL
# B28: Q9UKT9 (peptide)
# chain: FTCDQCGAGFTQKGNLLRHIKL
# B29: Q9UKT9 (peptide)
# chain: FTCEICGAHFTQKGNLLRHIKL
# B30: Q9UKT9 (peptide)
# chain: FVCNICGANFTQKGNLLRHIKL
# B31: Q9UKT9 (peptide)
# chain: FTCEICGHDFTQKGNLLRHIKL
# B32: Q9UKT9 (peptide)
# chain: FCCEVCGATFTQKGNLLRHIKL
# B33: Q9UKT9 (peptide)
# chain: FCCDICGAGFTQKGNLLRHIKL
# B34: Q9UKT9 (peptide)
# chain: FLCEICGHKFTQKGNLLRHIKL
# B35: Q9UKT9 (peptide)
# chain: FVCDVCGAEFTQKGNLLRHIKL
# B36: Q9UKT9 (peptide)
# chain: LACNQCGFNCTQKGNLLRHIKL
# B37: Q9UKT9 (peptide)
# chain: FQCPICGHKFTQKGNLLRHIKL
# B38: Q9UKT9 (peptide)
# chain: FTCPICGAKFTQKGNLLRHIKL
# B39: Q9UKT9 (peptide)
# chain: FVCEICGHMFTQKGNLLRHIKL
# B40: Q9UKT9 (peptide)
# chain: LCCEICGFECTQKGNLLRHIKL
# B41: Q9UKT9 (peptide)
# chain: FFCDICGAHFTQKGNLLRHIKL
# B42: Q9UKT9 (peptide)
# chain: LGCPICGFWCTQKGNLLRHIKL
# B43: Q9UKT9 (peptide)
# chain: FACNVCGAHFTQKGNLLRHIKL
# B44: Q9UKT9 (peptide)
# chain: FECDQCGAHFTQKGNLLRHIKL
# B45: Q9UKT9 (peptide)
# chain: FFCEVCGAQFTQKGNLLRHIKL
# B46: Q9UKT9 (peptide)
# chain: FECDVCGAMFTQKGNLLRHIKL
# B47: Q9UKT9 (peptide)
# chain: FFCPVCGATFTQKGNLLRHIKL
# B48: Q9UKT9 (peptide)
# chain: FECEVCGAKFTQKGNLLRHIKL
# B49: Q9UKT9 (peptide)
# chain: FQCPQCGAWFTQKGNLLRHIKL
# B50: Q9UKT9 (peptide)
# chain: FSCPVCGAEFTQKGNLLRHIKL
# Biological target: no compound (DMSO)
# Experiment: log2 fold change of degron read counts, EGFP-low vs EGFP+ sorted cells; higher = lower degron-EGFP level without compound (poor expression or instability)
# Settings: compound: DMSO control; 18 h
# 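Further: jurkat cells carrying a lentiviral library of mutant zinc finger degrons fused to EGFP plus mCherry, mCherry+ cells FACS sorted, degron abundance counted by next-generation sequencing.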
row,Sequence,log2 fold change of degron read counts
1,B1,-0.904
2,B2,0.623
3,B3,-1.75
4,B4,-0.0912
5,B5,-0.536
6,B6,-2.36
7,B7,1.53
8,B8,-2.21
9,B9,-0.0871
10,B10,-1.33
11,B11,-0.852
12,B12,-1.65
13,B13,0.195
14,B14,-1.95
15,B15,-2.07
16,B16,0.611
17,B17,-1.2
18,B18,-2.69
19,B19,-0.0806
20,B20,-1.73
21,B21,-0.291
22,B22,-1.17
23,B23,0.0895
24,B24,1.22
25,B25,-1.7

row,Sequence,log2 fold change of degron read counts
1,B26,0.0937
2,B27,0.333
3,B28,-1.46
4,B29,-1.29
5,B30,-0.663
6,B31,-2.24
7,B32,-0.976
8,B33,-0.766
9,B34,-1.57
10,B35,-1.83
11,B36,0.727
12,B37,-0.444
13,B38,-1.43
14,B39,-1.75
15,B40,-1.59
16,B41,-0.519
17,B42,1.5
18,B43,-0.494
19,B44,-2.37
20,B45,-1.68
21,B46,-1.95
22,B47,-0.396
23,B48,-1.73
24,B49,-0.124
25,B50,-0.789
